From PubChem BioAssay AID360 (National Center for Advancing Translational Sciences (NCATS), 2006)
Hit rate of the full screen: of about 48,000 compounds, about 550 (1.1%) were called active. Inconclusive results (about 4%) are left out. No stated cut-off is given here; in the data, active means potency below about 15 µM; inconclusive means mostly about 16 µM to 33 µM; inactive means weaker than that. This is one part of the list.

molecular target: Lysosomal acid glucosylceramidase (Homo sapiens) (UniProt P04062); assay: Glucocerebrosidase; conditions: purified enzyme, resorufin glucoside fluorescence (screen aimed at inhibitors), 20 min;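 further: the screen sought inhibitors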
Procedure, shortened: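 Compounds titrated against 0.2 nM normal enzyme, 30 uM resorufin beta-D-glucopyranoside substrate, citrate/phosphate buffer with taurocholate and tween-20, pH 5.9. Reaction ran 20 min at room temperature; fluorescence (Ex 548/Em 600) gave AC50.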
Potency means the concentration at half of the fitted maximal effect.

UniProt P04062, sequence (P04062 whole entry, looked up): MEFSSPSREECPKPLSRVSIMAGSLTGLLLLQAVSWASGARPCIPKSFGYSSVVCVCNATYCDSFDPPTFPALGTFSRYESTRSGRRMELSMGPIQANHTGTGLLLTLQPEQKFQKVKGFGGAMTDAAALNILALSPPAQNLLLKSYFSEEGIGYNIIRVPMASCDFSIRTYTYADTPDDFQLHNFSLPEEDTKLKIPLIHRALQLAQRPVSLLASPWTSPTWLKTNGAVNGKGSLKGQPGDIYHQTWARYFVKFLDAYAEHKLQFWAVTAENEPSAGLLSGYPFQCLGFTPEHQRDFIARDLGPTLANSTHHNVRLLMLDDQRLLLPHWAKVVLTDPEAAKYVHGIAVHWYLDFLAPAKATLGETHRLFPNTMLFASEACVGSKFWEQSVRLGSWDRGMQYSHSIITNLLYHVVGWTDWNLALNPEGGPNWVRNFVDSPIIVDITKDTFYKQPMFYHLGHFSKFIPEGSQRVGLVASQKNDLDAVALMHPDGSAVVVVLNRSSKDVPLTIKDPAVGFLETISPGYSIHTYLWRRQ

Potency, inactive:
COc1ccc(S(=O)(=O)N2CCCC(C(=O)N3CCN(C)CC3)C2)cc1C (configuration not stated) > 76.9 µM, Cc1c(N=Cc2ccc(Cl)o2)c(=O)n(-c2ccccc2)n1C > 76.9 µM, COc1ccc(-n2c(N3CCN(C)CC3)nc3sc4c(c3c2=O)CCCCC4)cc1 > 76.9 µM, Cc1cc(C)c2cc(CN(Cc3nnnn3C3CCCCC3)CC3CCCO3)c(=O)[nH]c2c1 (configuration not stated) > 76.9 µM, CC1(C)NC(=O)N(CCOc2cccc(Cl)c2Cl)C1=O > 76.9 µM, CC(=O)c1ccc(OC(C)C)c(CN2CCCCC2)c1 > 76.9 µM, CCOc1ccc(NS(=O)(=O)c2ccc3c(c2)oc(=O)n3C)cc1 > 76.9 µM, CCOC(=O)c1cnc(SCc2nc(N)nc(Nc3ccc(F)cc3)n2)nc1N > 76.9 µM, Cc1cccc(-n2c(O)c(C=Nc3c(C)n(C)n(-c4ccccc4)c3=O)c3ccccc3c2=O)n1 > 76.9 µM, O=C(NCc1nc2ncc(Br)cc2[nH]1)c1ccccc1 > 76.9 µM, COc1ccc(S(=O)(=O)N2CCCC2C(=O)Nc2ccc(C)cc2)cc1 (configuration not stated) > 76.9 µM, CC(C)Nc1nnc(SCC(=O)Nc2ccc(F)cc2)s1 > 76.9 µM, N#CC1=C(N)NC(SCC(=O)O)=C(C#N)C12CCCC2 > 76.9 µM, O=C(NCCN1CCCC1)C1CCN(S(=O)(=O)N2CCC3(CC2)OCCO3)CC1 > 76.9 µM, Cn1c(-c2ccccc2)cnc1SCC(=O)NCc1ccco1 > 76.9 µM, COc1cc(C(=O)OCC(=O)c2cc(C)n(C)c2C)cc(OC)c1OC > 76.9 µM, COCCn1c(Sc2nc(C)cs2)nc2c1c(=O)[nH]c(=O)n2C > 76.9 µM, CCN(CC)c1ccc(NC(=O)c2ccc(NC(=O)C3CCCO3)cc2)c(C)c1 (configuration not stated), N#CCCN(CCC#N)c1nncs1 > 76.9 µM, CN(C)C(=O)CSc1nnc(C23CC4CC(CC(C4)C2)C3)o1 > 76.9 µM, Cc1oc(C(=O)O)cc1CSc1nnc(-c2ccccc2)n1C > 76.9 µM, CCCN(c1ccc(OCC)cc1)S(=O)(=O)c1ccc2c(c1)CCN2C(=O)CCC(=O)O > 76.9 µM, c1ccc(-n2c(SCC3CCCCO3)nnc2-c2cccs2)cc1 (configuration not stated) > 76.9 µM, O=C(Nc1cc(C(F)(F)F)ccc1N1CCCC1)c1ccc2c(c1)OCO2 > 76.9 µM, COC(=O)CSC1=C(C#N)C(c2ccc(C)cc2)C2=C(CCCC2=O)N1 (configuration not stated) > 76.9 µM, CCOc1cc2[nH]c(=S)n(CC3CCCO3)c(=O)c2cc1OCC (configuration not stated) > 76.9 µM, Cc1cc(NC(=O)c2noc3c2CCCCC3)nn1Cc1ccc(Cl)cc1 > 76.9 µM, CCN1c2ccccc2-c2nc3ccccc3n2C1c1ccccn1 (configuration not stated) > 76.9 µM, CC(=O)NS(=O)(=O)c1ccc(NC(=O)CCC2CCCC2)cc1 > 76.9 µM, CC12CCC(C(=O)NCc3cccnc3)(OC1=O)C2(C)C (configuration not stated) > 76.9 µM, c1cncc(-c2nn3cnnc3s2)c1 > 76.9 µM, COc1cc(OC)c(C2N(c3cc(C)on3)C(=O)C3CCCN32)cc1OC (configuration not stated) > 76.9 µM, O=C(Cn1nnc(-c2ccccc2)n1)c1ccccc1 > 76.9 µM, CCCn1c(SCC(=O)Nc2cccc(C(=O)OC)c2)nnc1-c1cccnc1 > 76.9 µM, CCOc1ccc(-c2nnc3ccc(SCc4ccc(C(=O)OC)o4)nn23)cc1 > 76.9 µM, O=C(Cc1ccc(F)cc1)N(c1ccc(F)cc1)C1C=CS(=O)(=O)C1 (configuration not stated) > 76.9 µM, O=C(c1ccco1)N1CCN(C(=O)C2CCN(S(=O)(=O)c3cnc[nH]3)CC2)CC1 > 76.9 µM, CCn1c(SCc2nc(-c3ccc(OC)c(OC)c3)no2)nnc1-c1cccs1 > 76.9 µM, CCCOc1ccccc1C(=O)N(Cc1cccs1)C1CCS(=O)(=O)C1 (configuration not stated) > 76.9 µM, COc1cc(C2NC(=O)NC(O)(C(F)(F)F)C2C(C)=O)cc(OC)c1OC (configuration not stated) > 76.9 µM, COn1c(=O)c(-c2ccc(Cl)cc2)[n+]([O-])c2ccccc21 > 76.9 µM, COCC(=O)n1nc(-c2ccccc2)nc1NCc1ccc(F)cc1 > 76.9 µM, CC(=O)Nc1ccc(-c2ccccc2)s1 > 76.9 µM, CCc1nnc(NC(=O)C2CCCN(c3nc4ccccc4s3)C2)s1 (configuration not stated) > 76.9 µM, COc1cc(OC)cc(C(=O)Nc2ncc3c(n2)CC(C)CC3=O)c1 (configuration not stated) > 76.9 µM, O=c1cc(CN2CCc3ccccc32)nc2sccn12 > 76.9 µM, O=C(c1ccc(S(=O)(=O)Nc2ccccc2)cc1)N1CCOCC1 > 76.9 µM, c1c2c(cc3sc(N4CCOCC4)nc13)OCO2 > 76.9 µM, CCOC(=O)Cc1nnc(NC(=O)c2ccccc2OC)s1 > 76.9 µM, CCN(CC)C(=O)N1CCC(NC(=O)Cc2ccccc2)CC1 > 76.9 µM, CCN(Cc1ccccc1)S(=O)(=O)c1ccc(C(=O)Nc2nnc(-c3ccccc3OC)o2)cc1 > 76.9 µM, CCOC(=O)c1cnc2nc(Cc3ccccc3)[nH]n2c1=O > 76.9 µM, CCc1nnc(NC(=O)CCC(=O)N2CCN(CCc3ccccc3)CC2)s1 > 76.9 µM, Cc1c(O)nc(SC2CC(=O)N(c3ccccc3)C2=O)[nH]c1=O (configuration not stated) > 76.9 µM, CC1CC(C)CN(c2nc3c(c(=O)[nH]c(=O)n3C)n2CCCSc2nc3ccccc3s2)C1 (configuration not stated) > 76.9 µM, O=C(CN1CCN(S(=O)(=O)c2ccc(F)cc2)CC1)Nc1ccc(Cl)c(C(F)(F)F)c1 > 76.9 µM, O=C(c1ccccc1NS(=O)(=O)c1ccc(Br)s1)N1CCCC1 > 76.9 µM
